# The list shows a part of the results.
# Assays:
# Assay in all cases: glycan array binding signal (z-score within array); higher = stronger binding
# Settings in all cases: glycan notation: IUPAC condensed, linker removed; mutation: R343A
# [1] = target: Neu5Ac(a2-3)Gal(b1-3)[Fuc(a1-4)]GlcNAc(b1-3)Gal(b1-4)[Fuc(a1-3)]GlcNAc
# How it was run: (§1)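 Columns mapping to the same glycan were averaged after glycan names were converted to IUPAC-condensed notation. The data come from 3228 arrays in the Consortium for Functional Glycomics database, limited to those with an available protein sequence. Binding is reported as a within-array Z-score averaged across arrays of one protein sequence and across linkers.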
# [2] = target: Neu5Ac(a2-3)Gal(b1-3)[Neu5Ac(a2-3)Gal(b1-4)]GlcNAc
# How it was run: as §1
# [3] = target: Neu5Ac(a2-3)Gal(b1-3)[Neu5Ac(a2-6)]GalNAc
# How it was run: as §1
# [4] = target: Neu5Ac(a2-3)Gal(b1-4)Glc
# How it was run: as §1
# [5] = target: Neu5Ac(a2-3)Gal(b1-4)GlcNAc
# How it was run: as §1
# [6] = target: Neu5Ac(a2-3)Gal(b1-4)GlcNAc(b1-2)Man(a1-3)[GlcNAc(b1-2)Man(b1-4)GlcNAc(b1-2)Man(a1-6)]Man(b1-4)GlcNAc(b1-4)GlcNAc
# How it was run: as §1
# [7] = target: Neu5Ac(a2-3)Gal(b1-4)GlcNAc(b1-2)Man(a1-3)[Neu5Ac(a2-6)Gal(b1-4)GlcNAc(b1-2)Man(a1-6)]Man(b1-4)GlcNAc(b1-4)GlcNAc
# How it was run: as §1
# [8] = target: Neu5Ac(a2-3)Gal(b1-4)GlcNAc(b1-3)Gal(b1-3)GlcNAc
# How it was run: as §1
# [9] = target: Neu5Ac(a2-3)Gal(b1-4)GlcNAc(b1-3)Gal(b1-4)GlcNAc
# How it was run: as §1
# [10] = target: Neu5Ac(a2-3)Gal(b1-4)GlcNAc(b1-3)Gal(b1-4)GlcNAc(b1-3)Gal(b1-4)GlcNAc
# How it was run: as §1
# [11] = target: Neu5Ac(a2-3)Gal(b1-4)GlcNAc(b1-3)Gal(b1-4)[Fuc(a1-3)]GlcNAc
# How it was run: as §1
# [12] = target: Neu5Ac(a2-3)Gal(b1-4)GlcNAc(b1-6)[Gal(b1-3)]GalNAc
# How it was run: as §1
# [13] = target: Neu5Ac(a2-3)Gal(b1-4)GlcNAc(b1-6)[Neu5Ac(a2-3)Gal(b1-3)]GalNAc
# How it was run: as §1
# [14] = target: Neu5Ac(a2-3)Gal(b1-4)GlcNAc6S
# How it was run: as §1
# [15] = target: Neu5Ac(a2-3)Gal(b1-4)[Fuc(a1-3)]GlcNAc
# How it was run: as §1
# [16] = target: Neu5Ac(a2-3)Gal(b1-4)[Fuc(a1-3)]GlcNAc(b1-3)Gal
# How it was run: as §1
# [17] = target: Neu5Ac(a2-3)Gal(b1-4)[Fuc(a1-3)]GlcNAc(b1-3)Gal(b1-4)GlcNAc
# How it was run: as §1
# [18] = target: Neu5Ac(a2-3)Gal(b1-4)[Fuc(a1-3)]GlcNAc(b1-3)Gal(b1-4)[Fuc(a1-3)]GlcNAc(b1-3)Gal(b1-4)[Fuc(a1-3)]GlcNAc
# How it was run: as §1
# [19] = target: Neu5Ac(a2-3)Gal(b1-4)[Fuc(a1-3)]GlcNAc(b1-6)[Gal(b1-3)]GalNAc
# How it was run: as §1
# [20] = target: Neu5Ac(a2-3)Gal(b1-4)[Fuc(a1-3)]GlcNAc6S
# How it was run: as §1
# [21] = target: Neu5Ac(a2-3)Gal6S(b1-4)GlcNAc
# How it was run: as §1
# [22] = target: Neu5Ac(a2-3)Gal6S(b1-4)[Fuc(a1-3)]GlcNAc
# How it was run: as §1
# [23] = target: Neu5Ac(a2-3)GalNAc
# How it was run: as §1
# [24] = target: Neu5Ac(a2-3)GalNAc(b1-4)GlcNAc
# How it was run: as §1
# [25] = target: Neu5Ac(a2-3)[GalNAc(b1-4)]Gal(b1-4)Glc
# How it was run: as §1
# [26] = target: Neu5Ac(a2-3)[GalNAc(b1-4)]Gal(b1-4)GlcNAc
# How it was run: as §1
# [27] = target: Neu5Ac(a2-3)[Neu5Ac(a2-6)]GalNAc
# How it was run: as §1
# [28] = target: Neu5Ac(a2-6)Gal
# How it was run: as §1
# [29] = target: Neu5Ac(a2-6)Gal(b1-4)Glc
# How it was run: as §1
# [30] = target: Neu5Ac(a2-6)Gal(b1-4)GlcNAc
# How it was run: as §1
# [31] = target: Neu5Ac(a2-6)Gal(b1-4)GlcNAc(b1-2)Man(a1-3)[Gal(b1-4)GlcNAc(b1-2)Man(a1-6)]Man(b1-4)GlcNAc(b1-4)GlcNAc
# How it was run: as §1
# [32] = target: Neu5Ac(a2-6)Gal(b1-4)GlcNAc(b1-2)Man(a1-3)[GlcNAc(b1-2)Man(a1-6)]Man(b1-4)GlcNAc(b1-4)GlcNAc
# How it was run: as §1
# [33] = target: Neu5Ac(a2-6)Gal(b1-4)GlcNAc(b1-2)Man(a1-3)[GlcNAc(b1-2)Man(b1-4)GlcNAc(b1-2)Man(a1-6)]Man(b1-4)GlcNAc(b1-4)GlcNAc
# How it was run: as §1
# [34] = target: Neu5Ac(a2-6)Gal(b1-4)GlcNAc(b1-2)Man(a1-3)[Neu5Ac(a2-6)Gal(b1-4)GlcNAc(b1-2)Man(a1-6)]Man(b1-4)GlcNAc(b1-4)GlcNAc
# How it was run: as §1
# [35] = target: Neu5Ac(a2-6)Gal(b1-4)GlcNAc(b1-2)Man(a1-6)[Gal(b1-4)GlcNAc(b1-2)Man(a1-3)]Man(b1-4)GlcNAc(b1-4)GlcNAc
# How it was run: as §1
# [36] = target: Neu5Ac(a2-6)Gal(b1-4)GlcNAc(b1-2)Man(a1-6)[GlcNAc(b1-2)Man(a1-3)]Man(b1-4)GlcNAc(b1-4)GlcNAc
# How it was run: as §1
# [37] = target: Neu5Ac(a2-6)Gal(b1-4)GlcNAc(b1-3)Gal(b1-4)GlcNAc
# How it was run: as §1
# [38] = target: Neu5Ac(a2-6)Gal(b1-4)GlcNAc(b1-3)Gal(b1-4)[Fuc(a1-3)]GlcNAc(b1-3)Gal(b1-4)[Fuc(a1-3)]GlcNAc
# How it was run: as §1
# [39] = target: Neu5Ac(a2-6)Gal(b1-4)GlcNAc6S
# How it was run: as §1
# [40] = target: Neu5Ac(a2-6)GalNAc
# How it was run: as §1
# [41] = target: Neu5Ac(a2-6)GalNAc(b1-4)GlcNAc
# How it was run: as §1
# [42] = target: Neu5Ac(a2-8)Neu5Ac
# How it was run: as §1
# [43] = target: Neu5Ac(a2-8)Neu5Ac(a2-3)Gal(b1-4)Glc
# How it was run: as §1
# [44] = target: Neu5Ac(a2-8)Neu5Ac(a2-3)[GalNAc(b1-4)]Gal(b1-4)Glc
# How it was run: as §1
# [45] = target: Neu5Ac(a2-8)Neu5Ac(a2-8)Neu5Ac
# How it was run: as §1
# [46] = target: Neu5Ac(a2-8)Neu5Ac(a2-8)Neu5Ac(a2-3)Gal(b1-4)Glc
# How it was run: as §1
# [47] = target: Neu5Ac(a2-8)Neu5Ac(a2-8)Neu5Ac(a2-3)[GalNAc(b1-4)]Gal(b1-4)Glc
# How it was run: as §1
# [48] = target: Neu5Ac(a2-8)Neu5Ac(a2-8)Neu5Ac(a2-8)Neu5Ac(a2-3)[GalNAc(b1-4)]Gal(b1-4)Glc
# How it was run: as §1
# [49] = target: Neu5Ac(b2-6)Gal(b1-4)GlcNAc
# How it was run: as §1
# [50] = target: Neu5Ac(b2-6)GalNAc
# How it was run: as §1
# [51] = target: Neu5Ac9Ac(a2-6)Gal(b1-4)GlcNAc
# How it was run: as §1
# [52] = target: Neu5Gc(a2-3)Gal(b1-3)GlcNAc
# How it was run: as §1
# [53] = target: Neu5Gc(a2-3)Gal(b1-3)[Fuc(a1-4)]GlcNAc
# How it was run: as §1
# [54] = target: Neu5Gc(a2-3)Gal(b1-4)Glc
# How it was run: as §1
# [55] = target: Neu5Gc(a2-3)Gal(b1-4)GlcNAc
# How it was run: as §1
# [56] = target: Neu5Gc(a2-3)Gal(b1-4)[Fuc(a1-3)]GlcNAc
# How it was run: as §1
# [57] = target: Neu5Gc(a2-6)Gal(b1-4)GlcNAc
# How it was run: as §1
# [58] = target: Neu5Gc(a2-6)GalNAc
# How it was run: as §1
# [59] = target: Neu5Gc(b2-6)Gal(b1-4)GlcNAc
# How it was run: as §1
binder,measurement,setting,value
Surfactant Protein D (Human); Neck + Carbohydrate Recognition Domain (NCRD) (Homo sapiens) (protein) MLLFLLSALVLLTQPLGYLEAEMKTYSHRTMPSACTLVMCSSVESGLPGRDRDGREGPRGEKGDPGLPGAAGQAGMPGQAGPVGPKGDNGSVGEPGPKGDTGPSGPPGPPGVPGPAGREGALGKQGNIGPQGKPGPKGEAGPKGEVGAPGMQGSAGARGLAGPKGERGVPGERGVPGNTGAAGSAGAMGPQGSPGARGPPGLKGDKGIPGDKGAKGESGLPDVASLRQQVEALQGQVQHLQAAFSQYKKVELFPNGQSVGEKIFKTAQFVKPFTEAQLLCTQAGGQLASPRSAAENAALQQLVVAKNEAAFLSMTDSKTEGKFTYPTGESLVYSNWAPGEPNDDGGSEDCVEIFTNGKWNDAACGEKRLVVCEF,glycan array binding signal (z-score),[1],-0.192
same,glycan array binding signal (z-score),[2],-0.002
same,glycan array binding signal (z-score),[3],-0.125
same,glycan array binding signal (z-score),[4],-0.267
same,glycan array binding signal (z-score),[5],-0.226
same,glycan array binding signal (z-score),[6],-0.006
same,glycan array binding signal (z-score),[7],-0.183
same,glycan array binding signal (z-score),[8],-0.244
same,glycan array binding signal (z-score),[9],-0.42
same,glycan array binding signal (z-score),[10],-0.097
same,glycan array binding signal (z-score),[11],-0.226
same,glycan array binding signal (z-score),[12],-0.384
same,glycan array binding signal (z-score),[13],-0.035
same,glycan array binding signal (z-score),[14],-0.474
same,glycan array binding signal (z-score),[15],0.064
same,glycan array binding signal (z-score),[16],-0.015
same,glycan array binding signal (z-score),[17],-0.129
same,glycan array binding signal (z-score),[18],0.029
same,glycan array binding signal (z-score),[19],-0.141
same,glycan array binding signal (z-score),[20],-0.436
same,glycan array binding signal (z-score),[21],-0.082
same,glycan array binding signal (z-score),[22],-0.144
same,glycan array binding signal (z-score),[23],-0.123
same,glycan array binding signal (z-score),[24],0.101
same,glycan array binding signal (z-score),[25],-0.095
same,glycan array binding signal (z-score),[26],-0.157
same,glycan array binding signal (z-score),[27],-0.203
same,glycan array binding signal (z-score),[28],-0.19
same,glycan array binding signal (z-score),[29],-0.328
same,glycan array binding signal (z-score),[30],-0.175
same,glycan array binding signal (z-score),[31],-0.124
same,glycan array binding signal (z-score),[32],-0.145
same,glycan array binding signal (z-score),[33],-0.019
same,glycan array binding signal (z-score),[34],-0.213
same,glycan array binding signal (z-score),[35],-0.314
same,glycan array binding signal (z-score),[36],-0.034
same,glycan array binding signal (z-score),[37],-0.219
same,glycan array binding signal (z-score),[38],-0.332
same,glycan array binding signal (z-score),[39],0.52
same,glycan array binding signal (z-score),[40],0.053
same,glycan array binding signal (z-score),[41],-0.271
same,glycan array binding signal (z-score),[42],1.85
same,glycan array binding signal (z-score),[43],0.261
same,glycan array binding signal (z-score),[44],-0.141
same,glycan array binding signal (z-score),[45],-0.205
same,glycan array binding signal (z-score),[46],-0.051
same,glycan array binding signal (z-score),[47],-0.18
same,glycan array binding signal (z-score),[48],0.094
same,glycan array binding signal (z-score),[49],-0.183
same,glycan array binding signal (z-score),[50],-0.346
same,glycan array binding signal (z-score),[51],-0.418
same,glycan array binding signal (z-score),[52],0.033
same,glycan array binding signal (z-score),[53],-0.262
same,glycan array binding signal (z-score),[54],-0.26
same,glycan array binding signal (z-score),[55],-0.168
same,glycan array binding signal (z-score),[56],-0.246
same,glycan array binding signal (z-score),[57],-0.065
same,glycan array binding signal (z-score),[58],-0.406
same,glycan array binding signal (z-score),[59],-0.326
